Assay results as given in PMC12136788.
The list shows a part of the results.

B1: chr21:38862523:38862524:+_ENSG00000157540_ENST00000338785|hu_hu|motif|central (ssRNA)
RNA: GGGAGUUCUACAGUCCGACGAUCUCGGAAAUUGGUGUUUCUCAGCAAGUCAUAGAGGUUGUAGGACAGCAUUUCAAAAACGGAACAGAGAUGGUUUCGAAACAUAAAGUGGCGUUUCAAAUGCACUAUGUAGUAUUUCAUUUCCAACAGAGGAUUGAGCAUCA
B2: chr11:87793471:87793472:-_ENSMUSG00000020483_ENSMUST00000020775|mus_mus|mus_mus_mus_hu_False|48_58 (ssRNA)
RNA: GGGAGUUCUACAGUCCGACGAUCUGGACUUGAAAAUAAAAGAAUAAGCUGGAUCCCCCACCCCCCCACAUUGUCAACCCUAUGCGAGUUCUGAAUGGGCGACUCAUGAAAAUCAGCAGCUCAAACGGCAAUGACCACCCCACCCAACAGAGGAUUGAGCAUCA
B3: 26842443_26842563_970_3pUTR_ENSG00000120159_ENST00000333916|human|control|control (ssRNA)
RNA: GGGAGUUCUACAGUCCGACGAUCUUUGGGCUAGACUCUGCCAGUCCUAGAAUCUCAUUCACACUUUUCUCAAUGUCUUUCUCCAGGUCAUCUAUCUGACCAGCUUCACUUUGGACUGUAUUUUCUGGUGCCUCGGGAGCAGCUCAACAGAGGAUUGAGCAUCA
B4: chr7:56126341:56126342:+_ENSG00000146731_ENST00000540286|hu_hu|FALSE|FALSE (ssRNA)
RNA: GGGAGUUCUACAGUCCGACGAUCCAUAUUUCUCCUUUUAGCUCUGCGCAGAGCAACUAUGCCUUCUUUUGAAAGAGCAUCUAAGGAAAAGGGGUCAAUUCCCUUUUGAUUAAUAACAACAAAUCCUUUAUCUGAAUCGCCACACAACAGAGGAUUGAGCAUCA
B5: chr17:66519878:66519879:+_ENSG00000108946_ENST00000358598|hu_hu|motif|central (ssRNA)
RNA: GGGAGUUCUACAGUCCGACGAUCACUUCUCUCAUUAUCAUCAAGAUGUGAAAACAGCACAUUCUUUUCAAUGGCUUUGGCGGAAGCGGCCAUUGUCUUGUAAUCUUUUGGUAUAACCUUUCUAACAUAGGAUGCCGCAUCUUCCAACAGAGGAUUGAGCAUCA
B6: 76570844_76571599_1278_CDS_ENSG00000138757_ENST00000395719|human|control|control (ssRNA)
RNA: GGGAGUUCUACAGUCCGACGAUCCUCUUCCACAUUUAAACGUACUUCCCCUCGAAACAUAAUCGGUUUUGCAAUUAAGAUUCUCUGAACUGGUUCAGAGUCAUCAAAAACCACAAAACCAAAAUUUGGAAGCUUUCCCCCAACCAACAGAGGAUUGAGCAUCA
B7: 21046971_21047091_874_3pUTR_ENSMUSG00000020134_ENSMUST00000093290|mouse|control|control (ssRNA)
RNA: GGGAGUUCUACAGUCCGACGAUCAUCAAACCCUGCAGCAUAAAUCCGAGCUGUAAAGGGGGGACUGCGCUCACAUAUGAUCCUACAGGCAAAUCUUGAUAUAGUGCUUUGUACUGACUGCGUGUCGGAAUUACUCUGACUUCCCAACAGAGGAUUGAGCAUCA
B8: chr4:117809766:117809767:-_ENSMUSG00000033326_ENSMUST00000106406|mus_hu|FALSE|FALSE (ssRNA)
RNA: GGGAGUUCUACAGUCCGACGAUCAGGCAAACAAAUUCUUGAGGAGCAAAAACCUGUUUAACCCCUUCAGUAUUGCCCUCUAGUCCCACCCCCCACCCCAAAAUCAGCUCCCUCCCACCUACAGUGGGCCUCCAAUGGCCCCAGCAACAGAGGAUUGAGCAUCA
B9: chr4:144460044:144460045:+_ENSG00000153147_ENST00000283131|hu_mus|hu_hu_hu_mus_False|78_98 (ssRNA)
RNA: GGGAGUUCUACAGUCCGACGAUCACGGUCCAUAGCCUGAAGAUCUACUUGCGGAUUCCAAUCAGAAUCAUAUAAAAUGACUACAUCAGCAGUUGCAAGAUUGAUGCCCAGACCACCAGCACGUGUGCUUAGCAUAAAUACAAACAACAGAGGAUUGAGCAUCA
B10: chr18:21005031:21005032:-_ENSMUSG00000033382_ENSMUST00000025177|mus_mus|motif|central (ssRNA)
RNA: GGGAGUUCUACAGUCCGACGAUCAAACUUCCAGAGUAAUGACAAAUCAGACAGCAAAAGCGGAACUUUUAAAGGGUUUCGGAAAGCCACUUCCACAGUAAUUGGCUCUUCUACAACUGCAAGUGGAAACCUGGAGUUAUCGGACAACAGAGGAUUGAGCAUCA
B11: chr10:8116392:8116393:+_ENSG00000107485_ENST00000346208|hu_hu|motif|central (ssRNA)
RNA: GGGAGUUCUACAGUCCGACGAUCACUGUGGCCAGUGAAAGGAAACAAAACUGGCAGUUUGUCCAUUUGAAUAUCAGACCGGGUUUCUUCUUAAUUUCCACACUAUUUCUCCCAUAUUCCUUAAACUUCUUGGCAUCCUUCAUGCAACAGAGGAUUGAGCAUCA
B12: chr2:216981417:216981418:+_ENSG00000079246_ENST00000392132|hu_hu|hu_hu_hu_mus_True|98_108 (ssRNA)
RNA: GGGAGUUCUACAGUCCGACGAUCCUGAUACUGAUCCCCACCAGAAAGGGCAUUAUCAGUGCCAUCUGUGCCAUAGAGGACUAACGCAAUCUCAUCUUUGCUCUCCGAAAAUACCUGUCGUUGGACAAACAUAGUCAUCACUUUCAACAGAGGAUUGAGCAUCA
B13: chr3:33863462:33863463:+_ENSG00000170248_ENST00000307296|hu_hu|FALSE|FALSE (ssRNA)
RNA: GGGAGUUCUACAGUCCGACGAUCUGCAAUUUGGCUAGCUAAGGCUGCACAAUUGAACAACACACAGCUCUUUUCAUAUCCUAAGCUUGCAAGAGCCAGUUUUACAGAGCCUCCAAAAAGUGAACCUUUAUCGAAAGCAUCCUUCAACAGAGGAUUGAGCAUCA
B14: chrX:71549400:71549401:+_ENSMUSG00000019087_ENSMUST00000019231|mus_hu|mus_mus_mus_hu_False|58_58 (ssRNA)
RNA: GGGAGUUCUACAGUCCGACGAUCGCAGUAGGAAGAGGGAAGCUCUUCAGUCCAGUGCGCUGCAGGGUGGGAAAGCACAACCUAGACCACCGUCCCACCCUCAACCCCCCCACUGGCACAGGGUCACACAAUCUGGGUCAAAGACAACAGAGGAUUGAGCAUCA
B15: chr6:47494509:47494510:-_ENSMUSG00000029687_ENSMUST00000081721|mus_hu|FALSE|FALSE (ssRNA)
RNA: GGGAGUUCUACAGUCCGACGAUCCCCAAUUAACCUAGCAAUGGCACAGAAAUUGUCAUAGUAAGUGCCAAUGAGGACUCUAAACAUUGAGGCUUCAGCACCACUCCACUCCACAUUCUCAGGAGGUUCAAUAUUUGGCUUCAUCAACAGAGGAUUGAGCAUCA
B16: 1968776_1968896_4023_CDS_ENSG00000070366_ENST00000263073|human|control|control (ssRNA)
RNA: GGGAGUUCUACAGUCCGACGAUCGUCCUCACUGCGGAAGGCGAUGGAUUCGAGUUCAUUGCCACGGCUGGUCAGGGCUCGCAGGCAAGAGUCCCGACUCUCGAAUCGCUGCUCGAGGAACUCGAUGGACUUGCGGGCCUUCUCCAACAGAGGAUUGAGCAUCA
B17: chr1:225611761:225611762:-_ENSG00000143815_ENST00000272163|hu_mus|hu_hu_hu_mus_True|18_58 (ssRNA)
RNA: GGGAGUUCUACAGUCCGACGAUCCCAGGCCAUCGGCCUCUGACCACUUCACCCUCAACAAACUUCCUACUUGGCAUUUUCUAUAAUUAGUCUGGCCGCGCUCCGGCGGGAACUCCAGACGGCUCCCGACAGUCACCAGCAGCCCAACAGAGGAUUGAGCAUCA
B18: chr7:35913284:35913285:+_ENSG00000122545_ENST00000399035|perfect_dup|FALSE|FALSE (ssRNA)
RNA: GGGAGUUCUACAGUCCGACGAUCAUCAGGCAUCUGACGUCUGUUCACUCGAGAUUCUGCAUUUAAGUAAUCUUCAAAUUUACUAUCAAUGUAGUCGAUAACAGGCUGCCAGCAAUUACUAUUAUCCACUGCAUCUCCAAAUCCCAACAGAGGAUUGAGCAUCA
B19: chr2:10942720:10942721:-_ENSG00000143870_ENST00000272227|hu_hu|FALSE|FALSE (ssRNA)
RNA: GGGAGUUCUACAGUCCGACGAUCAAUAACUUCUCGGUUGAAAUUCGAUGGAGUUAAUUCGAUCACAUCAUCACUAGAGGAAUACAGACCAUUCACUGCCAGAAAGAAGGUACAGCUCACCAGACCGAGCACCAGGAGAGCCAUCAACAGAGGAUUGAGCAUCA
B20: chr7:54825262:54825263:-_ENSG00000132432_ENST00000352861|hu_hu|hu_hu_hu_mus_False|18_18 (ssRNA)
RNA: GGGAGUUCUACAGUCCGACGAUCCUGCCGGCUGGGCUCCACAAACUGCAUUACCUGAUCCAUGUUUGUUGGAUGGCGGAUUGAGAGCGUAGAGACACGUAGCUCAGGAGAGAACCGGAUGGAGGCCAACCGGAAGCUGGCAACCAACAGAGGAUUGAGCAUCA
B21: chr7:102944291:102944292:+_ENSG00000105819_ENST00000453466|hu_hu|motif|central (ssRNA)
RNA: GGGAGUUCUACAGUCCGACGAUCGUUCAAUCUCUGCUUCUCCCAAUGUGCUGUUUUGUAUUAUAUCAGCAAGAAUUUCGGCAGCUCUUGGCAAGUCUUUAGAGAAUGCUUUGGCAUAGUAUACAGUCUGCUCUCUGGAGGUAUCAACAGAGGAUUGAGCAUCA
B22: chr1:58468927:58468928:-_ENSMUSG00000026034_ENSMUST00000148330|mus_mus|mus_mus_mus_hu_False|1_98 (ssRNA)
RNA: GGGAGUUCUACAGUCCGACGAUCAAUUACUGAAAAAUGAAAGAUGUACCUUAGCUAUGUACUUAAUGAACCAAAUUACCCAAACAAAAUAAACAUGGCAAUAUAAAAAUGUUAAGAAUUUACAAAGCUGUACAAAAAGACUGACAACAGAGGAUUGAGCAUCA

molecular target: T1, UNK ZnF1-3 (human, UniProt Q9C0B0 31-174); assay: nsRBNS (natural sequence RNA bind-n-seq); RBNS binding buffer (assumed for nsRBNS): 25 mM Tris pH 7.5, 150 mM KCl, 3 mM MgCl2, 0.01% Triton X-100, 500 ug/ml BSA, 20 U/ml SUPERase-In, 4 C; UNK is unkempt and MSI1 is Musashi-1; names of the RNAs are library labels; protein concentration not given here; high values mean tight binding
T1 sequence: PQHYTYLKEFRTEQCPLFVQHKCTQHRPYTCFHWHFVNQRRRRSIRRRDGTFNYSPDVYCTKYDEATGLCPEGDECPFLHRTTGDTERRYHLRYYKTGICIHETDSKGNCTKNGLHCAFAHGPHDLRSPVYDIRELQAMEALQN

Row | Binder | binding signal [enrichment R]
1 | B1 | 0.844
2 | B2 | 2.04
3 | B3 | 0.46
4 | B4 | 1.66
5 | B5 | 0.84
6 | B6 | 1.61
7 | B7 | 1.04
8 | B8 | 1.78
9 | B9 | 1.34
10 | B10 | 1.07
11 | B11 | 1.01
12 | B12 | 0.858
13 | B13 | 1.09
14 | B14 | 1.55
15 | B15 | 1.65
16 | B16 | 0.418
17 | B17 | 1.27
18 | B18 | 0.823
19 | B19 | 1.35
20 | B20 | 0.796
21 | B21 | 0.884
22 | B22 | 2.78
